# The supplement of paper PMC8728848
# Some of the results follow.
# Key:
# Experiment in all cases: glycan array binding signal (z-score within array); higher = stronger binding
# Settings in all cases: glycan notation: IUPAC condensed, linker removed
# [1] = biological target: Fuc(a1-2)[GalNAc(a1-3)]Gal(b1-3)GlcNAc(b1-6)GalNAc
# Summary of the method: (§1)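 Glycan array data were curated from 3228 arrays in the Consortium for Functional Glycomics database and kept only where the protein sequence was available. Glycan names were converted to IUPAC-condensed notation, and columns mapping to the same glycan were averaged. The binding signal is a within-array Z-score, averaged across arrays of the same protein sequence at different concentrations or buffers and across linkers. Negative Z-scores can be read as non-binding.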
# [2] = biological target: Fuc(a1-2)[GalNAc(a1-3)]Gal(b1-4)Glc
# Summary of the method: as §1
# [3] = biological target: Fuc(a1-2)[GalNAc(a1-3)]Gal(b1-4)GlcNAc
# Summary of the method: as §1
# [4] = biological target: Fuc(a1-2)[GalNAc(a1-3)]Gal(b1-4)GlcNAc(b1-2)Man
# Summary of the method: as §1
# [5] = biological target: Fuc(a1-2)[GalNAc(a1-3)]Gal(b1-4)GlcNAc(b1-2)Man(a1-3)[Fuc(a1-2)[GalNAc(a1-3)]Gal(b1-4)GlcNAc(b1-2)Man(a1-6)]Man(b1-4)GlcNAc(b1-4)GlcNAc
# Summary of the method: as §1
# [6] = biological target: Fuc(a1-2)[GalNAc(a1-3)]Gal(b1-4)GlcNAc(b1-2)Man(a1-3)[Fuc(a1-2)[GalNAc(a1-3)]Gal(b1-4)GlcNAc(b1-2)Man(a1-6)]Man(b1-4)GlcNAc(b1-4)[Fuc(a1-6)]GlcNAc
# Summary of the method: as §1
# [7] = biological target: Fuc(a1-2)[GalNAc(a1-3)]Gal(b1-4)GlcNAc(b1-3)Gal(b1-4)GlcNAc
# Summary of the method: as §1
# [8] = biological target: Fuc(a1-2)[GalNAc(a1-3)]Gal(b1-4)GlcNAc(b1-3)Gal(b1-4)GlcNAc(b1-3)Gal(b1-4)GlcNAc
# Summary of the method: as §1
# [9] = biological target: Fuc(a1-2)[GalNAc(a1-3)]Gal(b1-4)GlcNAc(b1-3)GalNAc
# Summary of the method: as §1
# [10] = biological target: Fuc(a1-2)[GalNAc(a1-3)]Gal(b1-4)GlcNAc(b1-3)[Fuc(a1-2)[GalNAc(a1-3)]Gal(b1-4)GlcNAc(b1-6)]GalNAc
# Summary of the method: as §1
# [11] = biological target: Fuc(a1-2)[GalNAc(a1-3)]Gal(b1-4)GlcNAc(b1-6)GalNAc
# Summary of the method: as §1
# [12] = biological target: Fuc(a1-2)[GalNAc(a1-3)]Gal(b1-4)[Fuc(a1-3)]GlcNAc
# Summary of the method: as §1
# [13] = biological target: Fuc(a1-2)[GalNAc(a1-3)]Gal(b1-4)[Fuc(a1-3)]GlcNAc(b1-3)GalNAc
# Summary of the method: as §1
# [14] = biological target: Fuc(a1-2)[GalNAc(a1-4)]Gal(b1-4)GlcNAc
# Summary of the method: as §1
# [15] = biological target: Fuc(a1-2)[GalNAc(b1-3)]Gal
# Summary of the method: as §1
# Fuc(a1-3)GlcNAc = biological target: Fuc(a1-3)GlcNAc
# Summary of the method: as §1
# [16] = biological target: Fuc(a1-3)[Gal(b1-4)]Glc6S
# Summary of the method: as §1
# [17] = biological target: Fuc(a1-3)[Gal(b1-4)]GlcNAc
# Summary of the method: as §1
# [18] = biological target: Fuc(a1-3)[Gal(b1-4)]GlcNAc(b1-2)Man
# Summary of the method: as §1
# [19] = biological target: Fuc(a1-3)[Gal(b1-4)]GlcNAc(b1-2)Man(a1-3)[Fuc(a1-3)[Gal(b1-4)]GlcNAc(b1-2)Man(a1-6)]Man(b1-4)GlcNAc(b1-4)GlcNAc
# Summary of the method: as §1
# [20] = biological target: Fuc(a1-3)[Gal(b1-4)]GlcNAc(b1-2)Man(a1-3)[Fuc(a1-3)[Gal(b1-4)]GlcNAc(b1-2)Man(a1-6)]Man(b1-4)GlcNAc(b1-4)[Fuc(a1-6)]GlcNAc
# Summary of the method: as §1
# [21] = biological target: Fuc(a1-3)[Gal(b1-4)]GlcNAc(b1-3)Gal(b1-3)[Fuc(a1-4)]GlcNAc
# Summary of the method: as §1
# [22] = biological target: Fuc(a1-3)[Gal(b1-4)]GlcNAc(b1-3)Gal(b1-4)[Fuc(a1-3)]GlcNAc
# Summary of the method: as §1
# [23] = biological target: Fuc(a1-3)[Gal(b1-4)]GlcNAc(b1-3)Gal(b1-4)[Fuc(a1-3)]GlcNAc(b1-3)Gal(b1-4)[Fuc(a1-3)]GlcNAc
# Summary of the method: as §1
# [24] = biological target: Fuc(a1-3)[Gal(b1-4)]GlcNAc(b1-3)GalNAc
# Summary of the method: as §1
# [25] = biological target: Fuc(a1-3)[Gal(b1-4)]GlcNAc(b1-6)GalNAc
# Summary of the method: as §1
# [26] = biological target: Fuc(a1-3)[Gal(b1-4)]GlcNAc(b1-6)[Gal(b1-3)GlcNAc(b1-3)]Gal(b1-4)Glc
# Summary of the method: as §1
# [27] = biological target: Fuc(a1-3)[Gal(b1-4)]GlcNAc6S
# Summary of the method: as §1
# [28] = biological target: Fuc(a1-3)[Gal3S(b1-4)]Glc
# Summary of the method: as §1
# [29] = biological target: Fuc(a1-3)[Gal3S(b1-4)]GlcNAc
# Summary of the method: as §1
# [30] = biological target: Fuc(a1-3)[Gal3S(b1-4)]GlcNAc6S
# Summary of the method: as §1
# [31] = biological target: Fuc(a1-3)[GalNAc(b1-4)]GlcNAc
# Summary of the method: as §1
# [32] = biological target: Fuc(a1-3)[GalNAc(b1-4)]GlcNAc6S
# Summary of the method: as §1
# Fuc(a1-4)GlcNAc = biological target: Fuc(a1-4)GlcNAc
# Summary of the method: as §1
# Fuc(b1-3)GlcNAc = biological target: Fuc(b1-3)GlcNAc
# Summary of the method: as §1
# Gal(a1-2)Gal = biological target: Gal(a1-2)Gal
# Summary of the method: as §1
# Gal(a1-3)Gal = biological target: Gal(a1-3)Gal
# Summary of the method: as §1
binder,measurement,setting,value
PX14343A-bvu-539-29-539 (Bacteroides vulgatus) (protein) DSLTESSSNTFWQTPDDALMALASCYDALQSNQLYNSDQYSLGPLYMDCISDNGGHFNWSGWMEGYDMAMGIHTPSSSIIGSYWKDCYEVISRCNVLIANIDRVDMDASQKAIYQAEAKTIRALMYINLTMTYQDVPFLTAPLTIDEAECEKTDRAAIVAHVMTDLQDAAEVLPQNASSRGHITKGAALSLLGRVALYNEKWDDAIAAYKQVQGLGYSLDPSYAKLFTQSGETSPEIIFAVRYEGPGMSEGAAFNAHWNTPLEAMNGTIDLADAYYCKDGKPTTDTKIAELNGGGGLDVSKPNPAHFENRDPRLYSTLFVPGMLWNGKGGIDTSASNPYANVYGGAAASLSTVYVYKYFDPTDTSNSWDNGQDFYVVRYAEVLLSLAEAMVQKGGYVYSDVTALVNEVRQRADVNMPTVEEVEGTSLSKDELLEVIKHERRVELAFEGLRLFDLYRWKELDKAVANIENERTMYGLAYEARKFNGERDYVWPLPTAELDTNKKLVQHDLWK,glycan array binding signal (z-score),[1],-0.292
same,glycan array binding signal (z-score),[2],-0.387
same,glycan array binding signal (z-score),[3],-0.314
same,glycan array binding signal (z-score),[4],-0.396
same,glycan array binding signal (z-score),[5],0.385
same,glycan array binding signal (z-score),[6],-0.205
same,glycan array binding signal (z-score),[7],-0.354
same,glycan array binding signal (z-score),[8],0.052
same,glycan array binding signal (z-score),[9],-0.537
same,glycan array binding signal (z-score),[10],0.157
same,glycan array binding signal (z-score),[11],-0.065
same,glycan array binding signal (z-score),[12],-0.368
same,glycan array binding signal (z-score),[13],-0.171
same,glycan array binding signal (z-score),[14],0.146
same,glycan array binding signal (z-score),[15],-0.403
same,glycan array binding signal (z-score),Fuc(a1-3)GlcNAc,-0.299
same,glycan array binding signal (z-score),[16],-0.281
same,glycan array binding signal (z-score),[17],-0.297
same,glycan array binding signal (z-score),[18],-0.188
same,glycan array binding signal (z-score),[19],0.132
same,glycan array binding signal (z-score),[20],0.575
same,glycan array binding signal (z-score),[21],0.203
same,glycan array binding signal (z-score),[22],-0.107
same,glycan array binding signal (z-score),[23],0.016
same,glycan array binding signal (z-score),[24],-0.175
same,glycan array binding signal (z-score),[25],-0.298
same,glycan array binding signal (z-score),[26],-0.318
same,glycan array binding signal (z-score),[27],0.043
same,glycan array binding signal (z-score),[28],-0.229
same,glycan array binding signal (z-score),[29],-0.346
same,glycan array binding signal (z-score),[30],-0.338
same,glycan array binding signal (z-score),[31],0.035
same,glycan array binding signal (z-score),[32],-0.245
same,glycan array binding signal (z-score),Fuc(a1-4)GlcNAc,-0.448
same,glycan array binding signal (z-score),Fuc(b1-3)GlcNAc,-0.503
same,glycan array binding signal (z-score),Gal(a1-2)Gal,-0.198
same,glycan array binding signal (z-score),Gal(a1-3)Gal,-0.126
